In the supplement of paper PMC3334620:
Over roughly 33,000 sequences, “E-score (-0.5 to 0.5)” has its median near -0.017; the highest 2% begin near 0.3. The list shows a part of the results.

The sequences below were run against T1, Sut1 (UniProt P53032) (assay: PBM E-score (8-mer binding enrichment) (E-score (-0.5 to 0.5)); higher = stronger / more preferred TF binding; most listed sequences are background and not binding sites). Conditions: protein concentration: 200 nM; construct: GST-full length.
T1 sequence: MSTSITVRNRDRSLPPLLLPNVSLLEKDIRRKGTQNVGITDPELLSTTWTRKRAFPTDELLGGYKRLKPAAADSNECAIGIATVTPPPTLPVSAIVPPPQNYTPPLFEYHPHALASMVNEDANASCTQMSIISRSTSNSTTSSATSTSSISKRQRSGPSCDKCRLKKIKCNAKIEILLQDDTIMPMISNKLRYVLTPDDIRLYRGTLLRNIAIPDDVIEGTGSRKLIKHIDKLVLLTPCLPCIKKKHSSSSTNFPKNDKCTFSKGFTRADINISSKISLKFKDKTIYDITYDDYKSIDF
How it was run: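 Universal all-10-mer Agilent arrays, fresh or stripped once, were converted to double-stranded form by primer extension. GST-tagged yeast transcription factors from PURExpress in vitro transcription/translation, full-length or DNA-binding domain only, were applied at about 100-200 nM and detected with fluorescent anti-GST. After masliner normalisation, the Universal PBM Analysis Suite scored each ungapped eight-base word together with its reverse complement by E-score.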

Row | Sequence | PBM E-score
1 | AGCATCCA | -0.127
2 | GCAAATCC | 0.138
3 | CTCCACAC | -0.141
4 | ATGGTTAG | 0.0916
5 | ACAACGTG | -0.105
6 | CTGAAGTA | 0.086
7 | CAGCTAAG | -0.271
8 | CGGCAACG | -0.0534
9 | GGCTAGAC | -0.106
10 | CTGCTTAA | 0.00411
11 | CTGCCCAG | -0.222
12 | CCAGTTAG | -0.0225
13 | CCACCGCC | -0.247
14 | GAGACTCA | 0.0442
15 | ATTTGGCA | -0.0085
16 | CCATTGCA | -0.0889
17 | ACCGACCG | -0.0166
18 | AGTTCTAC | -0.159
19 | CAATTGAC | 0.0698
20 | CTCGAACA | 0.00064
21 | ACTTACTG | 0.102
22 | CCGTAGCC | -0.315
23 | ACTCATGG | -0.11
24 | ATTTCTTC | 0.259
25 | AGGGGCTG | -0.147

Row | Sequence | PBM E-score
26 | GGCAACCA | -0.0149
27 | AGATGAAG | 0.03
28 | GCCTGTTA | -0.172
29 | ATGATCAC | -0.00298
30 | AAACCTAC | 0.156
31 | ACCCGCAG | 0.0584
32 | CACCGTGA | -0.0886
33 | ACGCCGCT | -0.0911
34 | GGTCATTA | -0.137
35 | AACATATT | 0.249
36 | GATCTGCA | -0.127
37 | TAATTTAA | 0.283
38 | AGAACCAT | 0.12
39 | CATAGTCC | 0.217
40 | TCTTCTAA | 0.188
41 | ACGCAAGC | 0.0115
42 | CTTCTCTA | -0.0797
43 | AATACCTC | 0.0189
44 | AGCAGTTA | 0.145
45 | AAGCCGCC | -0.169
46 | AGAGTACC | -0.0251
47 | ACTAAGGG | -0.143
48 | CTCAAGAA | 0.0287
49 | CCACTGCC | -0.12
50 | GGATGAAA | 0.111

Row | Sequence | PBM E-score
51 | CTTCTAGC | -0.0899
52 | CATGGAAC | -0.41
53 | CGGCGTAC | 0.023
54 | GCATTAAA | 0.0763
55 | AACGCAAA | 0.0936
56 | ATAACGCG | -0.0533
57 | CCGAAGGC | 0.0334
58 | ACTACTCG | 0.197
59 | AGATGGCC | -0.0974
60 | GATAGCGC | -0.13
61 | AACACCAT | -0.0541
62 | ACAAAAAT | 0.272
63 | ATCTTAGC | 0.00142
64 | AGAAGTGA | 0.0327
65 | CAATTCTG | -0.101
66 | TGCTAAAA | -0.0228
67 | CGCGACCC | -0.119
68 | TCGACAGA | -0.158
69 | AATGGTCA | 0.0343
70 | GCTGAATA | 0.0643
71 | CCGATGGC | -0.0431
72 | CACTATCC | -0.00527
73 | AAAAAAGC | 0.086
74 | GATCGGCA | -0.151
75 | GATTGCTA | -0.107

Row | Sequence | PBM E-score
76 | AGCCCTTG | -0.132
77 | TAGATCGA | 0.0111
78 | GGGAGAAC | -0.0542
79 | TCAGTTCA | 0.00153
80 | ATTGTTTG | 0.0639
81 | ATGGGCAA | -0.06
82 | TGGGCACA | -0.176
83 | AAGGTAAC | 0.0861
84 | ACTTGCAA | 0.0929
85 | AACCCTGT | -0.226
86 | GTGTGAAC | -0.2
87 | AGGATACT | -0.0531
88 | ACGCATTA | -0.0206
89 | ACCAGCAT | -0.102
90 | AGAATAGA | 0.0525
91 | ATTTAGGG | 0.0972
92 | ACATCAGG | -0.0576
93 | CCGTCACC | -0.131
94 | ATGCCATA | 0.0321
95 | AACGTTCT | 0.0497
96 | AGAGGGCT | -0.35
97 | ACGGAAGT | 0.106
98 | CGGATGTC | 0.0637
99 | CAGAGTTA | -0.148
100 | CCACCCGA | -0.172

Row | Sequence | PBM E-score
101 | ACGATTGA | 0.0407
102 | CGACCGTA | -0.187
103 | ACTGCAGG | -0.18
104 | GGGTTCCA | -0.0414
105 | CTTCAAGC | -0.115
106 | GTGCTATA | 0.121
107 | GAGCCCTC | -0.299
108 | AGGCATAT | -0.0272
109 | GGTATACA | -0.12
110 | CCGGCCCG | 0.0526
111 | ATAGGAAC | 0.103
112 | ATACCTTG | 0.0477
113 | AAACAGAG | -0.108
114 | CGTACCCA | -0.179
115 | AGAATCTC | 0.0495
116 | TACGTTAA | 0.129
117 | GTTGGAAA | 0.0298
118 | ATTACGGC | -0.0212
119 | GCTCATTA | -0.029
120 | CATTTGCG | 0.0954
121 | ATCCCTCA | -0.19
122 | AATACTCT | 0.179
123 | CTAGCCAA | 0.137
124 | AGTGCGAA | 0.0436
125 | AGAAGACT | -0.0946

Row | Sequence | PBM E-score
126 | ACGTCCAG | -0.197
127 | ATAATTTA | 0.337
128 | CGCTTGTA | 0.0626
129 | GAGTCACC | -0.0467
130 | GCCGGCAA | 0.144
131 | ACCTAGGA | -0.0318
132 | CTATTGTA | 0.255
133 | AAAGGGAG | -0.254
134 | ATATCTTA | 0.281
135 | ACACTGGG | -0.171
136 | AACTTACT | 0.0273
137 | GGAATGCC | -0.109
138 | ACGCCAGG | -0.185
139 | CAGCTAAC | -0.21
140 | CCGATGTC | 0.207
141 | TCATCTCA | 0.0502
142 | AGCACCAG | -0.153
143 | TAACGAGA | 0.139
144 | GCACCACA | -0.198
145 | CCGCCTCC | -0.0309
146 | AATAGGTA | 0.214
147 | AAGTTCTA | 0.0927
148 | CGACCTTA | -0.0103
149 | CGGTGGCA | -0.223
150 | TTATTGAA | 0.183

Row | Sequence | PBM E-score
151 | AAAACCAT | 0.228
152 | AGATGTGC | -0.0367
153 | ATTCATGG | 0.135
154 | AGCTGTAC | -0.122
155 | GCCGCTAA | 0.0629
156 | CGCCAAGA | -0.282
157 | ATACATGA | 0.168
158 | CAATTCTA | 0.0644
159 | ACCTGCAA | -0.165
160 | CCCATGGA | -0.146
161 | CATTGAAA | 0.249
162 | AAGCCGTA | 0.0299
163 | GTGGGTCA | -0.218
164 | AAGGCATA | -0.0701
165 | AAGGCAGT | 0.0579
166 | GATATCGC | 0.047
167 | ACGCATGG | -0.224
168 | ACGTACGG | -0.154
169 | AGACCGAA | 0.15
170 | GAATAGAA | 0.229
171 | CTGCTAAG | -0.0745
172 | CGAGGGCA | -0.257
